Test results from PMC4242493.
This is one part of the list. The list includes weakly bound sequences.

The sequences below were run against MaxL homodimer (UniProt P61244) (assay: universal protein-binding microarray (PBM)). Settings: PBS-based mixture, 10 nM His-tagged protein dimer, 2% milk, 200 ng/uL BSA, 50 ng/uL salmon testes DNA, 0.02% TX-100; detection with Alexa 488 anti-His …; high values mean tight binding; most listed sequences are background and not binding sites; double strand, one strand shown.
UniProt P61244, sequence (P61244 whole entry): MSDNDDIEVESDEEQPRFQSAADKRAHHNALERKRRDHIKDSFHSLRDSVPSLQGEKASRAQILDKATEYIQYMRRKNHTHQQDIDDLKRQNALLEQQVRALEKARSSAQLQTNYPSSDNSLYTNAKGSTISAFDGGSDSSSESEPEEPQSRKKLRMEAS

Sequence | binding signal (normalized occupancy)
CACGCAAC | 0.0776
ATTTCCTG | 0.0715
CCACCAAG | 0.072
CCCTATAG | 0.0769
GACTTACA | 0.0731
TAATAATA | 0.0881
GACACTCA | 0.0738
CCGTTATC | 0.079
GGAAAGTA | 0.0717
CCTCACGA | 0.0765
ACAGTAGT | 0.0739
CGAAGCAC | 0.0756
CACCAGTA | 0.0795
CGGCCTCA | 0.0713
ACCAGTTA | 0.0761
AAGGTAGT | 0.0772
GAGGTTCA | 0.075
TGATATCA | 0.0873
GCGACCCC | 0.0803
AGGGGATA | 0.0873
AGGAGTCA | 0.0758
ATTTCATC | 0.0789

Sequence | binding signal (normalized occupancy)
TCAAAACA | 0.0736
GAGAGAAC | 0.0873
TACCCGAA | 0.0768
AGCCCAGA | 0.0724
ATAACCCC | 0.0892
GGACGAGA | 0.0695
AAGGCGGC | 0.0727
CGTTCCGA | 0.0709
AACTGGCA | 0.0713
CCCGGAAG | 0.0703
ACGGACGG | 0.0701
GCCTAAGC | 0.0703
CTCAAAAA | 0.0744
CCAAGATA | 0.0821
CAATCTTA | 0.0779
CCAAAGGC | 0.069
AAGAGTAA | 0.0792
TCGCATCA | 0.0786
CTTCCCTA | 0.071
GAGTGGCC | 0.073
GGCTGCAC | 0.0711
AGCTCCCT | 0.0725

Sequence | binding signal (normalized occupancy)
ATTTACTC | 0.0738
CTGGACGC | 0.0708
CTGGATGC | 0.0706
CCTCCGGA | 0.0691
TAAATGCA | 0.0733
GTGCCCAA | 0.0767
ACAATGGG | 0.0783
TACGACGA | 0.0716
AGCAGCGC | 0.071
GACGAGCA | 0.0723
ACTAGGAT | 0.0741
GCAGGGTA | 0.0757
AGGGGAAA | 0.0729
AACAGTCG | 0.073
AAAATCCT | 0.0702
CGACGGTC | 0.0719
CAGCAAAG | 0.068
ACCCTAGA | 0.0786
ACGGCCGG | 0.0705
AACGCGCA | 0.078
ACAGACGG | 0.0744
CACAATCC | 0.0745

Sequence | binding signal (normalized occupancy)
GCTTTTCA | 0.0704
GTCCGAAC | 0.0707
ACAATTGT | 0.0763
CGTAATAC | 0.0758
CGCCTGGC | 0.0759
TCAACCAA | 0.0742
ACCGAGTG | 0.0736
GGGGTTCA | 0.0782
CGGCATTA | 0.0721
CCTTTCAG | 0.0706
CAGCCCGC | 0.0671
ATCTGGAG | 0.0735
CTATACTC | 0.0784
AGGATCTC | 0.0765
ATTCCCCA | 0.0789
CATCAAAG | 0.0738
ACGCTCTA | 0.0826
ACGGCGTA | 0.0728
ACCTTGGA | 0.0711
TATCTTCA | 0.0764
GTGGAAAA | 0.0879
AGGATTTC | 0.0737

Sequence | binding signal (normalized occupancy)
ACTGTTTG | 0.0779
CGCCTCGA | 0.0668
TCAGCGCA | 0.0738
CCGAAATC | 0.073
CCGGATGC | 0.0722
CATTACCA | 0.0833
GGCCCCCA | 0.0743
ATCTGCAC | 0.0822
CGCTGGTC | 0.0727
GCCGCCGC | 0.0692
CCGGGATC | 0.0724
AGGTTGCG | 0.0716
ACACAGAG | 0.0759
CCTTGAAG | 0.0754
GGTAAAAA | 0.0729
TAACGCCA | 0.0773
GGTCCTTA | 0.0704
ACATGTAT | 0.102
AGGCGCTA | 0.0711
GCATTTTA | 0.0806
CATATGTA | 0.0972
GTATCGAA | 0.0739
